Values joined by “and” are separate entries in the source; they are usually repeats but may differ in a detail not shown here. Equal values may be shown once. This is one part of the list. Further columns of the screen follow, without active or inactive calls. Compounds called inactive in the main read-out are mostly missing here. Words in brackets tell the shape of the fitted curve; partial curves, single points and poor fits give uncertain potencies.

The nature of the test: qHTS Assay for Lipid Storage Modulators (AID 1519). The following applies: Drosophila S3 cells, BODIPY lipid droplet/cell ratio, laser cytometry, cells loaded with oleic acid. The gist of the method: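 Cells seeded at 5,000 per well were treated with compounds over a concentration series and loaded with oleic acid (400 uM, as added). Lipid droplet fluorescence (488 nm excitation, 500-530 nm channel) was read by laser-scanning cytometry and normalized to 20 uM Triacsin C.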
A general note: In qHTS, concentration-response curves come from the screen itself.

The mark [1] stands for this setting: measured here: cell count channel max response.
[2] abbreviates: measured here: cell number channel AC50.
Setting [3] is: measured here: lipid (BODIPY) channel AC50.
Setting [4] is: measured here: lipid channel max response.
Tags tell the direction and shape of the fitted curve.

Broadly, the AC50 is the concentration giving half of the maximal activity seen. As for `COc1ccccc1CNc1cc(-c2ccccc2C)ncn1`, the max response under setting [1] is 19.3% and the max response under setting [4] is 19%. Besides, the AC50 reads like this: under setting [2], 2.51 µM [rising, partial curve]; under setting [3], 1.78 µM [rising, partial curve].

On to `CCN(Cc1ccncc1)C(=O)C(CO)c1ccccc1` (stereo not drawn), for which the max response is 28.7% and 49.5% under setting [1]; 45.4% and 49.1% under setting [4]. The AC50 was 4.47 µM [falling, partial curve] under setting [2]; 39.8 µM [rising, single point] and 4.47 µM [falling, partial curve] under setting [3].

Consider `O=S(=O)(c1ccccc1)N1CCC2(CCCN(Cc3nccs3)C2)CC1`, for which the max response is 31.7% under setting [1] and 34.7% under setting [4]. The AC50 is 0.316 µM [rising, full curve, poor fit] under setting [2] and 0.355 µM [rising, full curve] under setting [3].

Take `C[N+]1(C)CCCC(OC(=O)C(O)(c2ccccc2)c2ccccc2)C1` (stereo not drawn): the max response was found to be 30.9% under setting [1] and 44.1% under setting [4]. For the same compound, the AC50 reads like this: under setting [2], 39.8 µM [rising, single point]; under setting [3], 39.8 µM [rising, single point].

Take `COCCn1c(=O)c(-c2ccccc2)nc2cnc(OCc3ccccc3)nc21`: the max response under setting [1] was 13.3% and the max response under setting [4] was 2.9%. The AC50 is 0.0501 µM [rising, full curve] under setting [2] and 0.0398 µM [rising, full curve] under setting [3].

On to `Cc1cnc(CNc2cc(-c3ccccc3Cl)ncn2)cn1`, for which the max response under setting [1] was determined as 23.5% and the max response under setting [4] turned out to be 30.5%. In addition, the AC50 was 5.01 µM [rising, full curve, poor fit] under setting [2] and 4.47 µM [rising, full curve, poor fit] under setting [3].

With `c1csc(CNc2nc(-c3ccc4c(c3)OCO4)nc3ccccc23)c1`, the max response came out at 22.9% under setting [1] and 28.8% under setting [4]. Besides, the AC50 is, setting by setting: under setting [2], 0.141 µM [rising, full curve]; under setting [3], 0.2 µM [rising, full curve].

These data come from PubChem BioAssay (NCATS).
